# Data taken from PubChem BioAssay AID686979 (National Center for Advancing Translational Sciences (NCATS), 2013).
# In all, about 420,000 compounds went through this assay and about 50,000 (12%) were called active. This list was built around the results that the source calls inconclusive (neither active nor inactive); the mix of calls is not that of the screen. Calls follow the shape of the dose curve; as a rule, active = well fitted inhibition curve with a large enough effect; inconclusive = small, poorly fitted or top-dose-only effect; inactive = flat fitted curve, though single readings scatter. Potencies of inconclusive entries are left out as doubtful fits.
# Assay: qHTS for Inhibitors of human tyrosyl-DNA phosphodiesterase 1 (TDP1): qHTS in cells in presence of CPT; also: nearly all actives have a fitted effect of over 55% in size
# Conditions: chicken DT40 Tdp1-/-;hTDP1 cells + 20 nM CPT, ATP luminescence, 48 h; activity change, negative = growth inhibition: at 46.2 µM (top of the series)
# Procedure, shortened: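 Chicken DT40 Tdp1-/- cells complemented with human TDP1, 400 cells/well, exposed to compounds plus 20 nM camptothecin for at least 48 h at 37 C; viability read as ATP content by CellTiter-Glo luminescence.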
# % is scaled to controls: 0 for no effect and ±100 for the full control effect; potency is read from the fitted curve at half-maximal effect; tags tell the direction and shape of the fitted curve.
SMILES,Potency,"activity change, negative = growth inhibition"
Cc1cccc(Cc2cnc(NC(=O)c3ccc(C)o3)s2)c1,"inconclusive [inhibitor, single point]",–
CC(=O)c1ccc(NC(=O)c2ccc(-n3cnnc3)cc2)cc1,inactive,–
CCC(=O)N1c2ccccc2CC1C(=O)NCc1ccc(N(C)C)cc1 (stereo unspecified),inactive,–
CC(C)C[C@@H]1O[C@H](CCc2ccccc2)Cc2[nH]c(=S)[nH]c(=O)c21,"inconclusive [inhibitor, single point]",–
FC(F)(F)c1cccc(-c2nn[nH]n2)c1,inactive,–
O=C(N/N=C/c1cc([N+](=O)[O-])ccc1Cl)c1cnccn1,active: 3.26 µM,–
CCCn1c(=N)n(CC(=O)C(C)(C)C)c2ccccc21,"inconclusive [inhibitor, single point]",–
NCCCCCc1nnc(SCc2cccc(Cl)c2)o1,"inconclusive [inhibitor, single point]",–
COc1ccc(C(=O)NCc2nnc(SCC(=O)Nc3cccc(OC)c3)o2)cc1,inactive,–
CC(C)(C)c1cc(CN2CCN(CCO)CC2)cc(C(C)(C)C)c1O,active: 13 µM,–
CC(C)CCCN1C(N(C)C)=NC[C@@H]1C,inactive,–
Oc1ccc(Br)cc1/C=N/Nc1nc(N2CCCCC2)nc(N2CCOCC2)n1,active: 14.6 µM,–
CN(Cc1ccccc1)c1ncnc2c1nnn2C,inactive,–
O=S(=O)(NCC(c1ccco1)S(=O)(=O)c1cccs1)c1ccc(Cl)cc1 (stereo unspecified),"inconclusive [inhibitor, single point]",–
CCOc1ccc(C(=O)c2oc3ccccc3c2NC(=O)c2cc(-c3ccc(Cl)cc3)on2)cc1,–,inconclusive: -31.7% [inhibitor]
CN1CCN(S(=O)(=O)c2ccc(Cc3ccc(S(=O)(=O)N4CCN(C)CC4)cc3)cc2)CC1,"inconclusive [inhibitor, single point]",–
COc1ccc(-c2nnc(SCC(=O)N(C)C3CCCCC3)o2)cc1OC,active: 16.4 µM,–
COc1cc(-c2nnc(COC(=O)C3c4ccccc4Oc4ccccc43)o2)cc(OC)c1OC,"inconclusive [inhibitor, single point]",–
CC(=O)c1ccc(NC(=O)CCn2c(=S)oc3ccccc32)cc1,inactive,–
C[C@@H]1CN([C@@H](C)CO)C(=O)CCCn2nncc2CO[C@H]1CN(C)S(=O)(=O)c1ccc(F)cc1,inactive,–
COC(=O)[C@@]1(Cc2ccccc2)[C@H]2C(=O)N(C)C(=O)[C@H]2[C@H]2CN(C)C(=NCc3ccccc3)N21,inactive,–
CCc1nn(C(CC)C(=O)NCCCN2CC(C)CC(C)C2)c(=O)c2cc3oc(C)cc3n12 (stereo unspecified),active: 16.4 µM,–
Cc1cc(/C=C2\SC(=S)N(C)C2=O)c(C)n1-c1ccc(O)cc1,"inconclusive [inhibitor, single point]",–
CCc1nn(CC(=O)N(C)Cc2ccccc2)c(=O)c2cc3sccc3n12,"inconclusive [inhibitor, single point]",–
COC(=O)c1ccccc1NC(=O)Cn1cnc([N+](=O)[O-])c1,inactive,–
CCCCOc1ccc(C2=CSC3=NCCN23)cc1[N+](=O)[O-],"inconclusive [inhibitor, single point]",–

SMILES,Potency,"activity change, negative = growth inhibition"
Clc1cc(Br)ccc1NCc1cccnc1,"inconclusive [inhibitor, partial curve, poor fit]",–
CC(C)Oc1ccc(S(=O)(=O)N2CCOCC2)cc1NC(=O)C(C)Oc1ccc(F)cc1 (stereo unspecified),"inconclusive [inhibitor, single point]",–
O=C(CCc1ccccc1)N1N=C(c2ccncc2)CC1(O)C(F)(F)F (stereo unspecified),"inconclusive [inhibitor, partial curve, poor fit]",–
CCn1nc(C)cc1C(=O)N1CCCC(C(=O)c2ccc(OC)cc2C)C1 (stereo unspecified),active: 23.1 µM,–
Cc1ccc(C(=O)Nc2cccnc2)cc1Cl,–,inconclusive: -31.2% [inhibitor]
O=C(NCc1n[nH]c(=S)n1-c1cccc(C(F)(F)F)c1)c1ccco1,inactive,–
COCCNC(=O)C1(C)CCCN(C(=O)c2cccnc2SC)C1 (stereo unspecified),inactive,–
COc1cccc(CN2CCN(C(=O)c3cc(-c4ccccn4)nc4ccc(Cl)cc34)CC2)c1,"inconclusive [inhibitor, single point]",–
COc1cccc(C(=O)Nc2nc(-c3ccc4c(c3)OCO4)cs2)c1,"inconclusive [inhibitor, single point]",–
COc1cc2c(cc1NC(=O)c1cc(-c3ccccn3)nc3ccccc13)oc1ccccc12,active: 20.6 µM,–
CC(=O)c1ccc2cc3c(cc2c1)OCO3,inactive,–
O=C(CSc1ncccn1)N1CCN(C(=O)CSc2ncccn2)CC1,inactive,–
O=C(N[C@@H](Cc1ccccc1)C(=O)OCc1ccccc1)c1ccco1,inactive,–
COc1ccc(NS(=O)(=O)c2cc(NC(=O)c3cccnc3Cl)ccc2N2CCCC2)cc1,"inconclusive [inhibitor, single point]",–
Cc1cccc(C(=O)n2nc(-c3cccnc3)nc2NCc2ccccc2)c1,inactive,–
CCn1cc(C(=O)NCCCOC)c(=O)c2cc(S(=O)(=O)N3CCCC3)ccc21,inactive,–
COc1cc2c(cc1OC)CN(C(=O)COc1ccc(C)c(C)c1)CC2,"inconclusive [inhibitor, single point]",–
COCc1cc(C)nc(SCC[N+](C)(C)CC(=O)c2ccc(Br)cc2)c1C#N,"inconclusive [inhibitor, single point]",–
Cc1cccc(N(C(=O)CCC(=O)Nc2cc(C)on2)C(C(=O)NC2CCCC2)c2ccc(C)o2)c1 (stereo unspecified),"inconclusive [inhibitor, single point]",–
CC1C(=O)CC2C3(C)CCC2(C(C)C(=O)O)C(=O)C13 (stereo unspecified),inactive,–
COC(=O)c1c(NC(=O)Cc2coc3ccc(C(C)C)cc23)sc2c1CCC2,"inconclusive [inhibitor, partial curve]",–
COc1ccc(OC)c(C(O)c2ncc(-c3cccc4ccccc34)[nH]2)c1 (stereo unspecified),active: 18.4 µM,–
N#CC1=C(S)N=C(N)C(c2nc(-c3ccccc3)cs2)C12CCCC2 (stereo unspecified),"inconclusive [inhibitor, single point]",–
CC(C)=CCn1c2ccc(NC(=O)NCc3ccc(F)cc3)cc2c(=O)n1C,active: 2.06 µM,–
COc1ccc(CNc2nc(-c3ccccc3CN(C)C)nc3ccccc23)c(OC)c1,active: 10.3 µM,–
CC(C)C(C(=O)NCC1CCCO1)N(Cc1ccco1)C(=O)CNS(=O)(=O)c1ccccc1 (stereo unspecified),inactive,–

SMILES,Potency,"activity change, negative = growth inhibition"
CN(C)S(=O)(=O)N1CCN(c2ccc([N+](=O)[O-])c(N3CCOCC3)c2)CC1,"inconclusive [inhibitor, single point]",–
CC(=NNC(=S)Nc1ccc(C)cc1)c1ccccn1,active: 0.0184 µM,–
Cc1ccc(C)c(NC(=O)C2CCCC2)c1,inactive,–
CCCCn1c(N)c(N(CCC(C)C)C(=O)C2CCCC2)c(=O)[nH]c1=O,inactive,–
C[C@@H]1COc2cc(N3CCSCC3)ccc2S(=O)(=O)N1,inactive,–
CC(NC(=S)NC1CCCCC1)C(c1cccs1)N1CCOCC1 (stereo unspecified),"inconclusive [inhibitor, single point]",–
CCOc1ccccc1NC(=O)C1CCCN1S(=O)(=O)c1ccc2c(c1)C(C)(C)C(=O)N2C (stereo unspecified),"inconclusive [inhibitor, single point]",–
CSc1ncccc1C(=O)OCc1ccc(C#N)cc1,inactive,–
COc1cc(C(=O)Nc2ccc3c(c2)N(C2CCCC2)C(=O)c2ccccc2S3)cc(OC)c1OC,"inconclusive [inhibitor, full curve, poor fit]",–
O=C1CSC(=S)N1N=Cc1ccccc1O,"inconclusive [inhibitor, single point]",–
CC(C)c1ccc(NC(=O)C2Cc3c(-c4ccco4)ccnc3O2)cc1 (stereo unspecified),"inconclusive [inhibitor, single point]",–
O=C(/C=C/c1ccco1)N1CCN(S(=O)(=O)c2cccc([N+](=O)[O-])c2)CC1,"inconclusive [inhibitor, single point]",–
Cc1ccc(C)c(NC(=O)Cn2cc(C(=O)c3cccs3)c3ccccc32)c1,active: 18.4 µM,–
O=C(C1CCCCC1)N(CCN1CCN(c2ccccc2CO)CC1)c1ccccn1,"inconclusive [inhibitor, single point]",–
CCOc1ccccc1NC(=O)CCNS(=O)(=O)c1cccc2nonc12,inactive,–
O=C(NNC(=O)c1ccccc1-c1ccccc1C(=O)O)c1cccc([N+](=O)[O-])c1,inactive,–
Cc1ccc(-n2c(-c3ccccc3)cc(=O)nc2C)cc1,inactive,–
O=C(Nc1ccccc1)NC1CCS(=O)(=O)C1 (stereo unspecified),inactive,–
COCCNC(=O)C1(C)CCN(C(=O)c2sc(-c3ccccc3)nc2C)C1 (stereo unspecified),inactive,–
COc1ccc(CCNC(=O)c2nc(-c3cccs3)no2)cc1OC,"inconclusive [inhibitor, partial curve, poor fit]",–
CCC(C(=O)NCc1ccc(OC)c(OC)c1)n1nc(C)c2c(C)n(-c3ccc(C)cc3)nc2c1=O (stereo unspecified),active: 16.4 µM,–
CCC(SC1=NCCS1)C(=O)Nc1nnc(-c2ccccc2OC)s1 (stereo unspecified),"inconclusive [inhibitor, single point]",–
Cc1ccc(C(=O)COC(=O)c2cccc(NC(=O)c3ccc(Cl)cc3Cl)c2)cc1,"inconclusive [inhibitor, partial curve]",–
CC1CN(Cc2ccccc2)c2nc3c(c(=O)[nH]c(=O)n3C)n2C1 (stereo unspecified),inactive,–
